Results from the supplement of paper PMC7826260.
Some of the results follow. One pool of 16,384 single-stranded DNAs met each Rep nickase domain in vitro (1 h at 37 °C, 3 µM enzyme); the outer parts of the 90-letter strands are left off. Uncut reads are compared with the no-enzyme pool on a log2 scale; strong cutting gives strongly negative numbers. There is no active / inactive call. Reads are scaled to the total, so uncut sequences can rise above 0 when many others are cut.

What was measured:
Test in all cases: uncleaved DNA left, log2 of reads against the no-enzyme library (log2 ratio); higher = less cleavage (more negative = more Rep cleavage of the k-mer); sequences stand for … in CTCGTCCG…ACCGGAGA
[1] = system: T1, Rep nickase domain of Muscovy duck circovirus
T1 sequence (residues 1-111 of Rep, tag left off): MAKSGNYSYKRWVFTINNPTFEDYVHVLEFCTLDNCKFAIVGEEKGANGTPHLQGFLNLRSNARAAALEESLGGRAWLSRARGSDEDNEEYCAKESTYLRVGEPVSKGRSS
Procedure: (§1)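 A pool of 90-nt single-stranded DNAs with seven random bases just before the constant AC of the nick site (name = the seven bases) was cut by 3 µM recombinant His6-SUMO-tagged Rep nickase domain (300 nM DNA, 50 mM HEPES pH 8.0, 50 mM NaCl, 1 mM MnCl2, 1 h, 37 °C, three replicates). Uncut DNA was amplified and sequenced.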

[2] = system: T2, Rep nickase domain of banana bunchy top virus
T2 sequence (residues 1-94 of Rep, tag left off): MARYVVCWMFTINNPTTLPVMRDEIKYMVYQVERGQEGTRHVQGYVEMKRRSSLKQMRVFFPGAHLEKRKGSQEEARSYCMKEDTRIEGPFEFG
Procedure: as §1

[3] = system: T3, Rep nickase domain of cabbage leaf curl virus
T3 sequence (residues 1-116 of Rep, tag left off): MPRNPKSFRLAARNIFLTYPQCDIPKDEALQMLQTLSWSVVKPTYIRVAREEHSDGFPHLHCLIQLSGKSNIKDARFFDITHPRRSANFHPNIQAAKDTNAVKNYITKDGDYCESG
Procedure: as §1

[4] = system: T4, Rep nickase domain of chickpea chlorotic dwarf virus
T4 sequence (residues 1-124 of Rep, tag left off): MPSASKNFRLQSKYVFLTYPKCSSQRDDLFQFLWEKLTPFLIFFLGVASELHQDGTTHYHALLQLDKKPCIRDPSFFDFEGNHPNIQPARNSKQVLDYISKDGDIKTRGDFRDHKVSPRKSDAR
Procedure: as §1

[5] = system: T5, Rep nickase domain of faba bean necrotic yellows virus
T5 sequence (residues 1-98 of Rep, tag left off): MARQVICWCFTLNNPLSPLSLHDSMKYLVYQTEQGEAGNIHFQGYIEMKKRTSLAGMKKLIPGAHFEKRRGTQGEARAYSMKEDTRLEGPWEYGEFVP
Procedure: as §1

[6] = system: T6, Rep nickase domain of maize striate mosaic virus
T6 sequence (residues 1-117 of Rep, tag left off): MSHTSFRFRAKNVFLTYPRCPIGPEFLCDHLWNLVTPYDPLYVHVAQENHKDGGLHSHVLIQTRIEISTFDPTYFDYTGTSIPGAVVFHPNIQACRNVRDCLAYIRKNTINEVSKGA
Procedure: as §1

[7] = system: T7, Rep nickase domain of porcine circovirus 2
T7 sequence (residues 2-116 of Rep, tag left off): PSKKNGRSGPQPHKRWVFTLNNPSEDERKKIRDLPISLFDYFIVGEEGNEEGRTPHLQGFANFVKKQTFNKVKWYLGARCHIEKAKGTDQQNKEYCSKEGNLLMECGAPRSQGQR
Procedure: as §1

[8] = system: T8, Rep nickase domain of tomato golden mosaic virus
T8 sequence (residues 1-124 of Rep, tag left off): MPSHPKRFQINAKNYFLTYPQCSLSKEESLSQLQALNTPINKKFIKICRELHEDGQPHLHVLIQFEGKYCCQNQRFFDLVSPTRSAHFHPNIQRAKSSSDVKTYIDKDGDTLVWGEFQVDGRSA
Procedure: as §1

[9] = system: T9, Rep nickase domain of tomato yellow leaf curl virus
T9 sequence (residues 1-136 of Rep, tag left off): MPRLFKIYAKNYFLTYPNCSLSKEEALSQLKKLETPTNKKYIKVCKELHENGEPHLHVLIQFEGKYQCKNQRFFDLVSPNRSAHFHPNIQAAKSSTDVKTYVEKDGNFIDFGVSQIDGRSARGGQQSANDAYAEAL
Procedure: as §1

[10] = system: T10, Rep nickase domain of wheat dwarf virus
T10 sequence (residues 1-137 of Rep, tag left off): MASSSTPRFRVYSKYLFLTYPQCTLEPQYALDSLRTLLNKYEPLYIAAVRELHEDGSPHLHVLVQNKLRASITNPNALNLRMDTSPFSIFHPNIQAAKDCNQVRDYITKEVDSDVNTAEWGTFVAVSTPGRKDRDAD
Procedure: as §1

| Sequence | uncleaved DNA left (log2) [1] | uncleaved DNA left (log2) [2] | uncleaved DNA left (log2) [3] | uncleaved DNA left (log2) [4] | uncleaved DNA left (log2) [5] | uncleaved DNA left (log2) [6] | uncleaved DNA left (log2) [7] | uncleaved DNA left (log2) [8] | uncleaved DNA left (log2) [9] | uncleaved DNA left (log2) [10] |
| --- | --- | --- | --- | --- | --- | --- | --- | --- | --- | --- |
| GAGCTCG | 0.00544 | -0.00814 | -0.435 | -0.205 | 0.0668 | -0.749 | 0.0909 | 0.0429 | 0.0283 | -0.0163 |
| ATTTGAT | -0.274 | -0.344 | 0.157 | 0.727 | -0.0237 | 0.935 | -1.54 | 0.0735 | -0.0635 | -0.0269 |
| AGTTCAT | -0.0678 | 0.12 | 0.249 | 0.207 | 0.119 | 0.276 | -3.13 | -0.0339 | 0.203 | 0.17 |
| GGCTTCT | -0.231 | 0.0475 | 0.21 | 0.415 | -0.019 | 1.45 | -1.35 | -0.228 | 0.0389 | -0.046 |
| TAAACCG | -0.0316 | -0.0147 | -0.871 | -1.43 | 0.0604 | -1.11 | 0.0588 | -0.0433 | 0.0371 | -0.121 |
| ACAACGA | -0.0478 | -0.092 | -0.449 | -0.392 | -0.123 | -1.1 | 0.0728 | -0.12 | -0.103 | -0.088 |
| ACCCCGG | -0.0445 | 0.0425 | -0.216 | -0.0246 | 0.102 | -0.345 | 0.168 | 0.219 | -0.0455 | -0.14 |
| CAGCTTC | 0.0822 | -0.0835 | -0.103 | -0.753 | -0.0338 | -0.613 | -0.306 | -0.043 | -0.0177 | -0.0323 |
| AATCAGC | -0.00423 | 0.0157 | -0.43 | -0.591 | -0.0226 | -1.07 | 0.0822 | -0.00597 | -0.0614 | -0.0508 |
| GGTGGTA | 0.0409 | -0.049 | 0.47 | 1.05 | 0.066 | 1.88 | 0.177 | 0.0164 | 0.039 | 0.111 |
| TATTAAG | -0.0787 | -0.0109 | -0.814 | -0.275 | -0.00204 | -0.956 | 0.149 | -0.0954 | 0.0298 | 0.0189 |
| CCTCTTA | -0.0379 | 0.0278 | -0.112 | -1.18 | -0.121 | -0.712 | -0.129 | -0.00752 | -0.0303 | -0.104 |
| GCTATAG | 0.118 | 0.0624 | -0.478 | -0.258 | 0.0962 | -1.03 | 0.204 | 0.135 | 0.115 | -0.0322 |
| ACTAGAC | 0.00634 | 0.052 | 0.0831 | 0.429 | 0.0689 | -0.279 | 0.171 | 0.223 | 0.0933 | 0.131 |
| TACGTCC | -0.0207 | -0.0793 | -0.124 | -0.521 | -0.0356 | -0.619 | -0.0171 | -0.0998 | 0.0506 | 0.0287 |
| CGATTGA | 0.204 | 0.161 | 0.131 | 0.806 | 0.129 | 1.35 | 0.181 | 0.109 | -0.00587 | 0.301 |
| TTATCAG | 0.0231 | 0.143 | -0.676 | -0.669 | -0.0135 | -1.23 | 0.179 | -0.00343 | 0.0965 | 0.0297 |
| TTTAAGC | 0.115 | -0.0449 | 0.0356 | -0.367 | 0.061 | -1.04 | 0.0921 | 0.0247 | 0.0684 | 0.00766 |
| TCTCTTT | 0.0931 | -0.236 | 0.065 | -2.19 | 0.102 | -0.423 | -0.455 | -0.284 | 0.00436 | -0.0146 |
| TCAAATT | -0.0572 | -0.0763 | -0.446 | -2.69 | -0.0162 | -0.555 | -0.703 | -0.107 | -0.0446 | -0.018 |
| GCAACGT | -0.0656 | -0.0934 | 0.0256 | 0.162 | -0.0507 | -0.327 | 0.112 | -0.0529 | -0.0301 | 0.0277 |
| GCAGCAG | 0.0675 | 0.0209 | -0.583 | -0.371 | 0.034 | -0.773 | 0.168 | -0.00475 | 0.0393 | -0.0512 |
| GCGGCTA | 0.13 | 0.126 | 0.287 | 0.923 | 0.128 | 1.74 | 0.181 | 0.137 | 0.0401 | 0.189 |
| CGTTACT | -2.88 | -0.63 | -0.12 | -2.35 | 0.0262 | -0.125 | -2.98 | 0.00308 | 0.0955 | -0.128 |
| GAGCCCC | -0.126 | -0.0539 | 0.164 | 0.657 | -0.184 | 0.856 | -0.0548 | -0.0179 | 0.00967 | -0.0165 |
| AATAGGG | -0.055 | -0.0514 | -0.448 | -0.289 | 0.0275 | -0.958 | 0.035 | -0.00461 | 0.0179 | -0.00406 |
| ATAAAGC | -0.00836 | 0.00153 | -0.236 | -0.469 | 0.00869 | -1.24 | 0.161 | 0.0376 | 0.0516 | -0.0114 |
| TTGAGGG | 0.157 | 0.0155 | 0.186 | 0.37 | 0.0357 | -0.172 | 0.205 | 0.0837 | 0.0189 | 0.067 |
| TGGGTTG | 0.0401 | -0.0663 | 0.13 | 0.266 | -0.0313 | 0.412 | 0.0773 | -0.0774 | -0.0488 | 0.0812 |
